Test results reported in US8735349B2, “Method for improving glucose tolerance in a diabetes type 2 patient of younger than 50 years and having postprandial plasma glucose concentration of at least 14 mmol/L” (priority 2011, dated 2014).

Tests used:
[1] = system: obese type 2 diabetic patients younger than 50 and not adequately controlled with metformin; test: Example 2: composite responders (HbA1c <7% and weight loss of at least 5%) at Week 24, lixisenatide vs sitagliptin as add-on to metformin
[2] = system: obese type 2 diabetic patients younger than 50 and not adequately controlled with metformin; test: Example 2: patients requiring rescue therapy during the double-blind treatment period; conditions: mITT
[3] = system: obese type 2 diabetic patients younger than 50 and not adequately controlled with metformin; test: Example 2: HbA1c change from baseline and HbA1c responders; conditions: add-on to metformin, mITT

N[C@@H](CC(=O)N1CCn2c(nnc2C(F)(F)F)C1)Cc1cc(F)c(F)cc1F [sitagliptin]
percentage of patients with HbA1c<7% at Week 24 and a weight loss of at least 5% of baseline body weight at Week 24 ([1]; add-on to metformin, mITT, LOCF): 7.5% | Response rate: patients with HbA1c <7% at Week 24 and weight loss of ≧5% of baseline body weight at Week 24 ([1]; mITT population): 12 (7.5%) n (%) | Patients requiring rescue therapy during the double-blind treatment period [2]: 11 (6.8%) n (%) | patients with HbA1c<7% at Week 24 [3]: 40.0%
